The assay relates to interferon and interferon-induced antiviral effector gene expression in cells expressing M-protein. Description: qPCR of interferons and effector gene expression, M-protein. Particulars: 1 μM CBD vs vehicle alone, 24 hours (FIG. 19). It is filed as cell-based, human.

In the case of `C=C(C)[C@@H]1CCC(C)=C[C@H]1c1c(O)cc(CCCCC)cc1O` [Cannabidiol, 2-[(1R,6R)-3-Methyl-6-(1-methylethenyl)-2-cyclohexen-1-yl]-5-pentyl-1,3-benzenediol], the IFIT1 expression entry is reported as “significantly increases”.
